Laboratory results as given in PMC4695389, “Non-classical amine recognition evolved in a large clade of olfactory receptors” (eLife, 2015).

Columns and labels:
TAAR12h D^3.32A mutant = format: cell-based, zebrafish
TAAR13c^D202A = biological target: T1, TAAR13c^D202A (Danio rerio, UniProt Q5QNP2, D202A); format: cell-based; details: cadaverine up to 1 mM
T1 construct: expressed in transfected cells; host or cells: HEK-293
T1 sequence (Q5QNP2 1-341 D202A): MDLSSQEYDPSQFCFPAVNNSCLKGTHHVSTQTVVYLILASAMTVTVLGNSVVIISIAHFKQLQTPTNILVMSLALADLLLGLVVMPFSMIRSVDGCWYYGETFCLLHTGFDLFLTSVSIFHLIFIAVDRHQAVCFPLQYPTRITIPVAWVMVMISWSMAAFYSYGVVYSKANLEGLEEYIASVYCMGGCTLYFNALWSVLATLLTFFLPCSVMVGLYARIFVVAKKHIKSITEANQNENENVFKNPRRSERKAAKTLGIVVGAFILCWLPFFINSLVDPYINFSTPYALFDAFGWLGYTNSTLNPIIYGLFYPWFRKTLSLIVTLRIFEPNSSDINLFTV

[1] = biological target: T2, HTR6 double mutant (D^3.32A; A^5.42D) (Mus musculus, UniProt Q9R1C8, A192D/D106A); format: cell-based; details: ligands 0, 10 or 100 μM
T2 construct: expressed in transfected cells; host or cells: HEK-293

TAAR10a D^3.32A mutant = experiment: Cre-Seap reporter gene assay, TAAR10a D^3.32A mutant; format: cell-based, zebrafish

T2 sequence (Q9R1C8 whole entry D106A/A192D): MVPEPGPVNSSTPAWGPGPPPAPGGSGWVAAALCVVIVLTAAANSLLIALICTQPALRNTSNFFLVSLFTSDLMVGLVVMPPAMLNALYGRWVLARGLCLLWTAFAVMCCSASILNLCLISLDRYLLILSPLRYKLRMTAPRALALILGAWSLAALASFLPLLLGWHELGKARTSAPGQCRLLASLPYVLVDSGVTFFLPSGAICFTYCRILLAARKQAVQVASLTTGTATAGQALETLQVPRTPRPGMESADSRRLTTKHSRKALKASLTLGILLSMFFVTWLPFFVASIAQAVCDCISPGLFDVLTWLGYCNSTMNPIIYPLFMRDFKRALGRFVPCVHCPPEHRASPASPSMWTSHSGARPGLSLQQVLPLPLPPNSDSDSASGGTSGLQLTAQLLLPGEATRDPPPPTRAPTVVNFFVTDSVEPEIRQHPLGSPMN

NCCc1ccccc1 [2-phenylethylamine]
response of TAAR12h with charge-neutralizing mutation of Asp^3.32 (TAAR12h D^3.32A mutant): completely eliminated responses

COc1cc(CCN)ccc1O [3-methoxytyramine]
activation of TAAR13c D202A mutant (TAAR13c^D202A): agonist

NCCO [ethanolamine]
recognition by HTR6 double mutant [1]: recognized

NCCc1c[nH]c2ccc(O)cc12 [serotonin]
recognition by HTR6 double mutant [1]: no longer recognized | response of TAAR10a with charge-neutralizing mutation of Asp^3.32 (TAAR10a D^3.32A mutant): completely eliminated responses
